# Measured values reported in PubChem BioAssay AID1347073 (National Center for Advancing Translational Sciences (NCATS), 2019).
# Out of some 45,000 compounds screened, about 200 (0.44%) were called active. This list was built around the results that the source calls inconclusive (neither active nor inactive); the mix of calls is not that of the screen. Calls come from the whole dose curve; as a rule, active = well fitted activation curve with a large enough effect; inconclusive = small, poorly fitted or top-dose-only effect; inactive = no such curve, though single readings can be large or run the other way. Potencies of inconclusive entries are doubtful fits and often do not repeat.
# Assay: qHTS of TDP-43 Inhibitors: NCGC Sytravon Library Screen; note: nearly all actives have a fitted effect of over 55% in size; for growth rescue (activation): 0% is about no effect
# Details: yeast TDP-43 toxicity rescue, BacTiter-Glo growth, 24 h; growth rescue (activation): at 46.1 µM (top of the series)
# From the text: The goal of this project is to identify new chemical probes capable of reversing the toxicity associated with TDP-43 which is associated with frontotemporal lobar degeneration and amyotrophic lateral sclerosis. These compounds will provide a complementary approach to deciphering the tangled mechanisms of toxicity and protection that we have uncovered through genome-wide genetic screens and are beginning to uncover in a large-scale proteomics analysis with mass spectroscopy. To this end, a miniaturized assay was developed to be screened against the Molecular Libraries Small Molecule Repository (MLSMR) to discover TDP-43 inhibitors. Please note that in the set-up this yeast-based assay compounds that inhibit as TDP-43, have a read-out as activators. NIH Chemical Genomics Center [NCGC] NIH Molecular Libraries Probe Centers Network [MLPCN] Assay Submitter (PI): Susan Lindquist, Whitehead Institute/MIT MLPCN Grant: R21 NS060957
# Dispense 2.5 microL yeast galactose medium per 1536-well plate, pin compound, dispense 2.5 microL TDP-43 expressing yeast in galactose medium at OD600=0.02 (pregrown in raffinose medium to mid-log phase) per well, incubate for 24 hr at 30 deg C, and cell growth will be measured using 5 microL of Bactiter/Glo reagent to entire plate and read using Luminescence Protocol in ViewLux.
# Potency is the fitted concentration of half-maximal effect; tags give direction and shape of the fitted curve.
SMILES,Potency,growth rescue (activation)
COc1ccc(OC)c(-c2csc(NC(=O)Cc3ccccc3F)n2)c1,"inconclusive: 12.6 µM [activator, partial curve, poor fit]",–
CC1Cc2ccccc2N1CC(=O)NCc1ccccc1Cl (stereo unspecified),"inconclusive: 15.8 µM [activator, single point]",–
CCOC(=O)C(CC)n1nc(C)c2c(C)n(-c3ccc(C)cc3)nc2c1=O (stereo unspecified),–,inactive: 9.41%
Cc1cc(/C=N/n2c(COc3ccccc3)nc3ccccc3c2=O)c(O)c([N+](=O)[O-])c1,"inconclusive: 20 µM [activator, single point]",–
Cc1cc(=O)[nH]c(SCC(=O)N2CCCC(C)C2)n1 (stereo unspecified),–,inactive: -10.1%
CCSc1ncc(Cl)c(C(=O)N(Cc2ccccc2)c2ccc(OC)cc2)n1,–,inactive: 1.42%
CN(CC(=O)NCc1ccc(F)cc1)S(=O)(=O)c1ccc(Br)s1,–,inactive: 18.3%
COc1ccccc1C(=O)O/N=C(\c1ccccc1)c1ccncc1,"inconclusive: 22.4 µM [activator, single point]",–
CC(C)CCNC(=O)C(c1ccc(O)cc1)N(Cc1cccs1)C(=O)C1COc2ccccc2O1 (stereo unspecified),–,inactive: 13.8%
O=C(CSC1=NCCS1)Nc1cccc2ccccc12,"inconclusive: 35.5 µM [activator, single point]",–
O=C(COc1ccc(Br)cc1)Nc1ccc([N+](=O)[O-])cn1,"inconclusive: 2.82 µM [activator, full curve]",–
CC1(c2ccc(Cl)cc2)CC(C)(C)N(C(=O)c2cccc(F)c2)c2ccccc21 (stereo unspecified),–,inactive: 3.86%
CCCc1nc2ccccc2c(C(=O)OC(C)C(=O)NCc2ccc3c(c2)OCO3)c1CC (stereo unspecified),"inconclusive: 31.6 µM [activator, single point]",–
O=C(Nc1ccc(Nc2ccccc2)cc1)C(Cl)Cl,"inconclusive: 17.8 µM [activator, partial curve, poor fit]",–
CC(C)(C)NC(=O)NC(=O)CSc1nnc(COc2ccccc2Cl)o1,"inconclusive: 35.5 µM [activator, partial curve, poor fit]",–
O=C(O)c1nn(CCOc2ccc(Cl)cc2Cl)c(=O)c2ccccc12,–,inactive: -5.83%
O=C(NCCCN1CCOCC1)c1cc(-c2cccc(O)c2)on1,–,inactive: -3.23%
CCOc1ccc(N2C(=O)C(CC(=O)Nc3ccc(F)cc3)N(Cc3ccccn3)C2=S)cc1 (stereo unspecified),"inconclusive: 35.5 µM [activator, single point]",–
O=C1NC(=Nc2ccccc2)S/C1=C\C=C\c1ccco1,"inconclusive: 35.5 µM [activator, single point]",–
Cc1cc(S(=O)(=O)N2CCCC2)ccc1OCC(=O)N1CCCCC1,–,inactive: 6.27%
O=C(O)c1cccc(-n2cnc3cccnc32)c1,–,inactive: 0.991%
Cc1ccc(/C=C/C(=O)Nc2ccc(Oc3ccccc3)cc2)o1,"inconclusive: 25.1 µM [activator, single point]",–
CCc1ccc(NC(=O)C(C)Sc2nc(-c3ccco3)c(C#N)c(=O)[nH]2)cc1 (stereo unspecified),–,inconclusive: -33.3% [activator]
CCOC(=O)c1ccc(C(=O)OCC)c(NC(=S)Nc2ccc([N+](=O)[O-])cc2OC)c1,"inconclusive: 35.5 µM [activator, single point]",–

SMILES,Potency,growth rescue (activation)
O=C(NNC(=S)Nc1ccc(F)c(Cl)c1)c1ccccc1Br,"inconclusive: 17.8 µM [activator, partial curve, poor fit]",–
Cc1cccc(-c2cnc(C(O)c3ccc(-c4ccccc4)cc3)[nH]2)c1 (stereo unspecified),–,inactive: 11.6%
O=C(/C=C/c1ccc2c(c1)OCCCO2)c1ccccc1O,"inconclusive: 7.08 µM [activator, partial curve, poor fit]",–
COCCCNC(=O)c1ccc(-c2c(C)noc2C)c2ccoc12,–,inactive: 14.9%
CCOC(=O)CCn1nc(C)c2c(C)n(-c3ccccc3)nc2c1=O,–,inactive: 2.14%
CCOC(=O)c1c(C(C)(C)C)oc2ccc(O)cc12,"inconclusive: 15.8 µM [activator, partial curve, poor fit]",–
Cc1ccc(C)n1-c1nnc(N2CCCC(C(=O)NCc3ccccc3)C2)s1 (stereo unspecified),–,inactive: 2.34%
CCCn1c(C)cc(/C=C(\C#N)C(=O)OCC(=O)Nc2cc(OC)c(OC)c(OC)c2)c1C,"inconclusive: 15.8 µM [activator, single point]",–
CC1(C(=O)O)CCCN(C(=O)C2(c3ccc(Cl)cc3)CCCC2)C1 (stereo unspecified),active: 14.1 µM,–
COc1ccc(CNc2ncccc2[N+](=O)[O-])cc1,"inconclusive: 14.1 µM [activator, single point]",–
O=S(=O)(/C=C/c1ccccc1)NC1CCCCCCC1,"inconclusive: 8.91 µM [activator, partial curve, poor fit]",–
O=C(Nc1ccccc1Oc1ccccc1)[C@@H]1O[C@H](CO)[C@H](O)[C@H](O)[C@H]1O,–,inactive: -4.6%
CCOc1cc(/C=C/c2ccc3cccc([N+](=O)[O-])c3n2)ccc1O,"inconclusive: 22.4 µM [activator, partial curve, poor fit]",–
Fc1ccc(-n2c(-c3ccco3)nc3nc4ccccc4nc32)cc1,–,inactive: 0.534%
OC(c1cccc(Cl)c1)c1nc(-c2ccccc2)cs1 (stereo unspecified),–,inconclusive: 69% [activator]
CCOCc1c(C(=O)Nc2ccc(OC)nc2)oc2ccccc12,"inconclusive: 10 µM [activator, partial curve]",–
CCc1ccc(CNC(=O)c2ccc(CS(=O)c3ccc(Br)cc3)o2)cc1 (stereo unspecified),"inconclusive: 20 µM [activator, single point]",–
Cc1ccc(NC(=O)c2cc(-c3cccs3)nc3ccccc23)nc1,"inconclusive: 11.2 µM [activator, partial curve, poor fit]",–
CCOC(=O)CCn1c(=O)c2cccn2c2cccnc21,–,inactive: 3.59%
COc1cccc(C(=O)NCCCNC(=O)c2ccccn2)c1,–,inactive: 10.7%
CC1CCCCC1NC(=O)CCCN1C(=O)c2ccccc2C1=O (stereo unspecified),"inconclusive: 11.2 µM [activator, partial curve]",–
CN(CC1CCCCO1)C(=O)c1cc(COc2ccc(F)cc2Cl)on1 (stereo unspecified),"inconclusive: 1.58 µM [activator, partial curve, poor fit]",–
COc1ccc(NC(=O)CC(C)n2ccnc2)cc1 (stereo unspecified),–,inactive: -1.14%
COCCN(C(=S)Nc1cccc(C)c1)C(C)c1cccs1 (stereo unspecified),"inconclusive: 10 µM [activator, partial curve, poor fit]",–

SMILES,Potency,growth rescue (activation)
O=C(CCSCc1ccc(Cl)cc1)NCCc1ccccc1,"inconclusive: 5.62 µM [activator, full curve, poor fit]",–
O=C(COC(=O)CNC(=O)c1ccccc1)NC1CCCCC1,–,inactive: 11.6%
COc1ccc(-c2csc(C(O)c3ccc(F)cc3)n2)cc1OC (stereo unspecified),–,inconclusive: 48.3% [activator]
CCn1c(COc2ccccc2Cl)nnc1SCC(=O)Nc1ncccc1C,–,inactive: -16.6%
COc1ccc(OC)c(C(C(=O)NC2CCCCC2)N(Cc2ccco2)C(=O)c2ccccn2)c1 (stereo unspecified),–,inactive: 6.31%
CC1Cc2ccccc2N1CC(=O)NCc1ccc2c(c1)OCO2 (stereo unspecified),"inconclusive: 11.2 µM [activator, partial curve, poor fit]",–
COc1ccc(OCC(=O)N2c3ccccc3CC2C)c([N+](=O)[O-])c1 (stereo unspecified),"inconclusive: 17.8 µM [activator, partial curve, poor fit]",–
COc1ccc(C(=S)N2CCN(c3cccc(Cl)c3)CC2)c(OC)c1,"inconclusive: 14.1 µM [activator, single point]",–
CCS(=O)(=O)c1ccc(N=Nc2ccc(O)c3ncccc23)c(OC)c1,"inconclusive: 14.1 µM [activator, partial curve, poor fit]",–
CC(=O)Nc1cccc(-c2csc(Nc3ccc(C)cn3)n2)c1,"inconclusive: 17.8 µM [activator, single point]",–
COc1ccc(C(C)=O)cc1COC(=O)c1cc(C)nc2ccccc12,"inconclusive: 8.91 µM [activator, partial curve, poor fit]",–
CC(C)c1nnc(NC(=O)c2nc(S(=O)(=O)Cc3ccccc3)ncc2Cl)s1,"inconclusive: 5.62 µM [activator, partial curve, poor fit]",–
COc1ccc(-n2ncc3c2ncn2nc(-c4ccc(Cl)cc4Cl)nc32)cc1,–,inactive: 8.5%
CC(=O)NC/C(C)=N\Nc1ccc([N+](=O)[O-])cc1,"inconclusive: 15.8 µM [activator, partial curve, poor fit]",–
COc1ccc2cc(-c3[nH]ncc3CN3CCCCO3)ccc2c1,"inconclusive: 11.2 µM [activator, partial curve, poor fit]",–
COc1cc(F)ccc1-c1cc(C(=O)NCc2ccc(F)cc2)[nH]n1,–,inconclusive: 58.3% [activator]
CCOc1ccc(S(=O)(=O)N(CC(=O)NN=C2CCN(C)CC2)c2ccc(C)cc2)cc1,–,inactive: 11.3%
O=C(Nc1ccc(Cl)cc1)Nc1ccccc1NS(=O)(=O)c1cccs1,"inconclusive: 15.8 µM [activator, single point]",–
N#Cc1nc(-c2ccc(OCc3ccccc3)cc2)oc1NCc1ccco1,–,inactive: 10.5%
COc1ccccc1CNC(=O)c1ccc(OC(C)C)cc1,"inconclusive: 11.2 µM [activator, single point]",–
C#CCn1cnc2c(cnn2-c2ccc(C)c(C)c2)c1=O,"inconclusive: 10 µM [activator, single point]",–
OC[C@@H]1CN(Cc2ccc3c(c2)OCO3)C[C@H](n2cnc3c(N4CCCC4)ncnc32)O1,–,inactive: 2.02%
O=[N+]([O-])c1ccc(CSc2nnc(Cc3ccccc3)n2-c2ccc(F)cc2)cc1,"inconclusive: 15.8 µM [activator, partial curve, poor fit]",–
